Results published in PubChem BioAssay (NCI).
“And” between values parts separate entries of the source, which are not always exact repeats. Identical values can stand only once.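 These data come from cells grown in 96-well plates and exposed to compound for 48 hours at five concentrations. GI50 = concentration required for 50% inhibition of growth. TGI: concentration producing complete growth inhibition.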

Tested on: NCI-H322M lung
Test: NCI-60 cell line screen, 48 h

## COC1=C(OC)C(=O)C(C/C=C(\C)CC/C=C(\C)CC/C=C(\C)CC/C=C(\C)CC/C=C(\C)CC/C=C(\C)CC/C=C(\C)CC/C=C(\C)CC/C=C(\C)CCC=C(C)C)=C(C)C1=O
  GI50: > 100 µM
  TGI: > 100 µM

## Cc1c(OCc2cccc3ccccc23)ccc2c(=O)cc(SCCN3CCOCC3)oc12
  TGI: > 100 µM

## COc1cc(OC)c2c(=O)cc(-c3ccccc3OCc3ccccc3)oc2c1OC
  GI50: 16.2 µM
  TGI: 60.4 µM

## COc1ccc(-n2c(N)c(C#N)c(C#N)c2-c2ccco2)cc1
  TGI: > 100 µM

## O=C(c1ccccc1)c1nnn(Cc2ccccc2Cn2nnc(C(=O)c3ccccc3)c2C(=O)c2ccccc2)c1C(=O)c1ccccc1
  TGI: > 100 µM

## CCC(C)(O)c1cn(-c2ccc(Cl)cc2)nn1 (configuration not stated)
  TGI: > 100 µM

## Cc1ccc(S(=O)(=O)n2cc([C@@]3(O)C[C@H](CSC#N)OC3=O)c3ccccc32)cc1
  GI50: > 100 µM
  TGI: > 100 µM

## O=c1[nH]c2ccccc2c(O)c1/C=N/C(=S)NC1CCCCC1
  TGI: > 100 µM

## COc1c(OC)c(OC)c2c(=O)cc(-c3ccc(OC(C)C)cc3)oc2c1OC
  TGI: > 52.4 µM

## Cc1cc2c(c(C(=O)NCC(=O)O)c1)Oc1c(cc(C)cc1C(=O)NCC(=O)O)S2
  TGI: > 100 µM

## COc1cc(/C=C/C(=O)CC(=O)/C=C/c2cc(OC)c(O)c(OC)c2)cc(OC)c1O
  GI50: 30.2 µM
  TGI: 25 µM and > 100 µM

## O=C(O)Cn1c2c(c3c1-c1ccccc1C3=O)C(=O)CCC2
  GI50: > 100 µM
  TGI: > 100 µM

## CC(=O)OCC1OC(n2c(=O)[nH]c(=O)c3n[nH]nc32)C(OC(C)=O)C(OC(C)=O)C1OC(C)=O (configuration not stated)
  TGI: > 100 µM

## Oc1ccc2ccccc2c1OCc1nnc(CCCCCCCCc2nnc(COc3c(O)ccc4ccccc34)n2Nc2ccccc2)n1Nc1ccccc1
  TGI: > 100 µM

## O=c1cc(-c2ccccc2)oc2c1ccc1[nH]c3ccccc3c(=O)c12
  TGI: > 100 µM

## COc1cc(F)c(F)cc1C(=O)c1cnc(NC2CCN(S(C)(=O)=O)CC2)nc1N
  GI50: 4.52 µM
  TGI: > 22.6 µM

## CC(=O)CC(=O)N1CCSC1=S
  TGI: > 10 µM

## O=[N+]([O-])c1ccc(N2N=C(c3c(O)ccc4ccccc34)CC2c2ccc(Cl)cc2)c([N+](=O)[O-])c1 (configuration not stated)
  TGI: > 100 µM

## O=c1c2ccccc2nc(N/N=C/c2ccc([N+](=O)[O-])cc2)n1-c1ccccc1
  TGI: > 100 µM

## COc1cccc(C(C#N)NNC(=O)c2c(Cl)c(Cl)c(Cl)c(Cl)c2-c2nc3ccc(C(=O)c4ccccc4)cc3[nH]2)c1O (configuration not stated)
  TGI: > 100 µM

## CC(=O)c1c[nH]c2ccc(-c3ccnc(Nc4ccc(NC(=O)C5CCCC5)c(CN5CCOCC5)c4)n3)cc12
  GI50: 0.0352 µM
  TGI: 0.546 µM

## C=C(CN(CC)CC)C1(c2ccccc2)CC2(CCCC2)C(=O)O1 (configuration not stated)
  TGI: > 100 µM

## O=C1C(N2CCN(CCOCCO)CC2)=C(Cl)C(=O)c2ncccc21
  GI50: > 100 µM
  TGI: > 100 µM

## CSc1nnc(SCc2nn3c(=O)cc(C)nc3s2)s1
  TGI: > 100 µM

## Cc1cc2c(=O)c3ccc(Cl)cc3[nH]c2c(C(N)=O)c1C
  TGI: > 100 µM

## CCN1CCN(c2cc(C(=O)Nc3cccc(Nc4ccc5c(OC)cccc5n4)c3)cc(C(F)(F)F)c2)CC1
  GI50: 1.33 µM
  TGI: 7.28 µM

## CC(C)N(C(=O)C12C3C4C5(C(=O)O)C(C1C35I)C42C(=O)O)C(C)C (configuration not stated)
  TGI: > 100 µM

## C/C(=C\Cc1ccc(F)cc1)CCCCCC/C(C)=C/Cc1ccc(F)cc1
  TGI: 68.2 µM

## CC(C)C[C@H](NC(=O)Cn1cccc(CNC(=O)c2ccccc2)c1=O)B(O)O
  GI50: 26.4 µM
  TGI: > 100 µM

## Cn1c2ccc(Cl)cc2c2ccc3c(c21)C(=O)C=CC3=O
  TGI: > 10 µM

## Cc1cc(N2CCCCC2)nc2ccc(Cc3ccc4nc(N5CCCCC5)cc(C)c4c3)cc12
  TGI: > 100 µM

## O=C(O)CSC1=NNC2(C(=O)N1)c1ccccc1-c1ccccc12
  TGI: > 10 µM

## Cc1nc(NS(=O)(=O)c2ccc(NCN3C(=O)c4ccccc4C3=O)cc2)oc1C
  GI50: > 100 µM
  TGI: > 100 µM

## Oc1c(Cl)cc2cc1-c1cc(cc(Cl)c1O)CCc1c(cc(Cl)c(O)c1Cl)-c1cc(Cl)c(c(Cl)c1O)/C=C\2
  TGI: 16 µM

## CCOC(=O)c1sc2c(C(=O)OCC)n3cc(C)cc(C)c3c2c1O
  TGI: > 100 µM

## CCC1CCCCN1CC(C(C)=O)C(c1ccccc1)c1c(O)c2ccccc2oc1=O (configuration not stated)
  TGI: > 100 µM
